{"source": "PubChem BioAssay AID588342", "about": "(National Center for Advancing Translational Sciences (NCATS), 2011)", "note": "About 25,000 (6.9%) of roughly 360,000 compounds were called active. Inconclusive results, whose numbers are uncertain, are shown with a selection of clear calls. The call rests on the fitted dose curve; in most records, active means well fitted inhibition curve with a large enough effect; inconclusive means small, poorly fitted or top-dose-only effect; inactive means flat fitted curve, though single readings scatter. A potency beside an inconclusive call is a rough fit, not a confirmed value. Potency means the concentration at half of the fitted maximal effect; tags describe the fitted curve by direction and shape."}
{"target": "Luciferin 4-monooxygenase (Photinus pyralis) (UniProt P08659)", "sequence (P08659 whole entry, looked up)": "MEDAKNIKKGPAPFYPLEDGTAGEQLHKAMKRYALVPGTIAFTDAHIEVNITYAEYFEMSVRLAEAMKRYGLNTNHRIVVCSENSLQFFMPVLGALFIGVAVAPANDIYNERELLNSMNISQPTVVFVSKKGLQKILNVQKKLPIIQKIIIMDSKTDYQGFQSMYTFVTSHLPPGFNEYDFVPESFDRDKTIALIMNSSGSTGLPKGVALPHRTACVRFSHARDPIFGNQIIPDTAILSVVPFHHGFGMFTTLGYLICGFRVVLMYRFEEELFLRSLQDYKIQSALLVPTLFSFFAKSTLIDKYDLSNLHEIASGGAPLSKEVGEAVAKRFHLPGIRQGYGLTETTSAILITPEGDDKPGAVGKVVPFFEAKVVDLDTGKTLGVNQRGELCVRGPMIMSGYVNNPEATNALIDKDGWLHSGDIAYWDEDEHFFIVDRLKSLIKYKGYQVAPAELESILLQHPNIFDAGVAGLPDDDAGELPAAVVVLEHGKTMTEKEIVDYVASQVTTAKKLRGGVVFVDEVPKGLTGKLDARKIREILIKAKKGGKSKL", "test": "qHTS profiling assay for firefly luciferase inhibitor/activator using purifed enzyme and Km concentrations of substrates (counterscreen for miR-21 project); further: nearly all actives have a fitted effect of over 55% in size", "details": "purified FLuc, luminescence inhibition; series mostly up to 57.5 µM", "outline": "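Purified P. pyralis luciferase, 10 nM final, with Km-level 10 uM D-luciferin and 10 uM ATP in 50 mM Tris acetate pH 7.5, 10 mM Mg acetate, 0.01% Tween-20, 0.05% BSA; 6-point qHTS titration about 60 µM downward; luminescence read.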"}
{"molecule": "O=C(COC(=O)c1ccc(O)cc1)Nc1ccc(N2CCCCC2)cc1", "Potency": "inconclusive: 23.9 µM [inhibitor, single point]"}
{"molecule": "c1ccc(N/N=C2\\CCCc3ccccc32)nc1", "Potency": "inconclusive: 19 µM [inhibitor, single point]"}
{"molecule": "CCCCCCCC/C=C\\CCCCCCCC(=O)O", "Potency": "inconclusive: 37.9 µM [inhibitor, partial curve, poor fit]"}
{"molecule": "Fc1ccc([C@@H]2Nc3ccccc3[C@@H]3C=CC[C@@H]32)cc1", "Potency": "inconclusive: 33.8 µM [inhibitor, partial curve, poor fit]"}
{"molecule": "O=C(Nc1nnc(SCC(=O)N2CCCCC2)s1)c1ccc(F)cc1F", "Potency": "active: 8.49 µM"}
{"molecule": "CCOc1ccc(/C=C/C(=O)c2cc(Br)ccc(=O)c2O)cc1", "Potency": "inconclusive: 26.9 µM [inhibitor, partial curve, poor fit]"}
{"molecule": "COc1ccc(/C=C/c2nc(C#N)c(N3CCCCCC3)o2)cc1OC", "Potency": "inconclusive: 12 µM [inhibitor, partial curve, poor fit]"}
{"molecule": "O=S(=O)(Nc1cccc(-c2ccc(N3CCOCC3)nn2)c1)c1cc(Cl)ccc1Cl", "Potency": "active: 7.57 µM"}
{"molecule": "CC(C)(C)c1ccc(NC(=O)COC(=O)c2ccc(NS(=O)(=O)c3ccc(F)c(F)c3)cc2)cc1", "Potency": "inconclusive: 26.9 µM [inhibitor, partial curve, poor fit]"}
{"molecule": "C(=C\\c1cccc2ccccc12)/c1nnc(-c2cccs2)o1", "Potency": "inconclusive: 33.8 µM [inhibitor, single point]"}
{"molecule": "Cc1ccc(C)c(Nc2ncnc3c2cnn3-c2ccc(F)cc2)c1", "Potency": "inconclusive: 26.9 µM [inhibitor, partial curve]"}
{"molecule": "O=C(NCCc1ccc(F)cc1)N[C@@H](Cc1ccccc1)C(=O)O", "Potency": "inactive"}
{"molecule": "O=C(CCC1CCCCC1)Nc1cccnc1", "Potency": "inconclusive: 37.9 µM [inhibitor, partial curve, poor fit]"}
{"molecule": "COc1ccc(-c2cc(C(F)(F)F)nc(SCCC(=O)Nc3ccc(O)cc3)n2)cc1", "Potency": "inactive"}
{"molecule": "CN(C)S(=O)(=O)c1cc(NC(=O)CN2CCc3ccccc32)ccc1Cl", "Potency": "inconclusive: 26.9 µM [inhibitor, partial curve, poor fit]"}
{"molecule": "COc1ccc(-c2cc(C3CCN(c4ncccc4[N+](=O)[O-])CC3)[nH]n2)cc1", "Potency": "inconclusive: 37.9 µM [inhibitor, partial curve, poor fit]"}
{"molecule": "CCn1c(C)nc2cc(C(=O)NNC(=S)Nc3ccc(OC)cc3)ccc21", "Potency": "inconclusive: 37.9 µM [inhibitor, partial curve, poor fit]"}
{"molecule": "CCCCSc1nnc2c(n1)[nH]c1ccccc12", "Potency": "inconclusive: 0.757 µM [inhibitor, single point]"}
{"molecule": "COc1cc(/C=C2\\C(=N)N3N=C(S(=O)(=O)CC(C)C)SC3=NC2=O)ccc1OC(=O)c1ccco1", "Potency": "inconclusive: 23.9 µM [inhibitor, single point]"}
{"molecule": "Cc1onc(-c2ccccc2)c1C(=O)NC(=S)NNC(=O)c1cc(-c2ccc(F)cc2)n[nH]1", "Potency": "active: 15.1 µM"}
{"molecule": "Cc1nc(-c2ccc(S(=O)(=O)N(C)Cc3ccccc3)cc2)co1", "Potency": "inconclusive: 37.9 µM [inhibitor, partial curve, poor fit]"}
{"molecule": "CCC(C(=O)O/N=C(\\N)c1ccc(Cl)cc1)c1ccccc1", "note": "(stereo not given)", "Potency": "inconclusive: 30.1 µM [inhibitor, single point]"}
{"molecule": "COc1ccc(-c2nc(SC(C)C(=O)c3c(N)n(C)c(=O)n(C)c3=O)n[nH]2)cc1", "note": "(stereo not given)", "Potency": "inconclusive: 16.9 µM [inhibitor, partial curve, poor fit]"}
{"molecule": "O=C(c1ccco1)N1CCN(CCOCCOc2cccc3ccccc23)CC1", "Potency": "inactive"}
{"molecule": "CCOC(=O)NC(=O)COC(=O)CCCc1nc2ccccc2s1", "Potency": "inconclusive: 37.9 µM [inhibitor, partial curve, poor fit]"}
{"molecule": "Nn1c(SCc2ccccc2)nnc1-c1ccccn1", "Potency": "inconclusive: 21.3 µM [inhibitor, single point]"}
{"molecule": "O=C(CN(C(=O)c1csnn1)c1ccccc1F)NC1CCCCC1", "Potency": "inactive"}
{"molecule": "CCOc1ccc(N=C2NC(=O)S/C2=C\\c2ccc(Cl)cc2)cc1", "Potency": "inactive"}
{"molecule": "CCC(=O)Nc1nc2ccc3nc(C)sc3c2s1", "Potency": "inconclusive: 9.53 µM [inhibitor, partial curve]"}
{"molecule": "Cc1ccc(S(=O)(=O)C2(C(=O)Nc3ccc(C(C)C)cc3)CC2)cc1", "Potency": "inconclusive: 37.9 µM [inhibitor, partial curve, poor fit]"}
{"molecule": "Cc1cc(C(=O)Nc2cccc3cccnc23)ccc1[N+](=O)[O-]", "Potency": "inconclusive: 10.7 µM [inhibitor, partial curve, poor fit]"}
{"molecule": "O=C(O)C1CCC1C(=O)Nc1nc(-c2ccc(Cl)s2)cs1", "note": "(stereo not given)", "Potency": "inconclusive: 21.3 µM [inhibitor, single point]"}
{"molecule": "Cc1ccc(O)c(-c2cc(-c3ccccc3C)[nH]n2)c1", "Potency": "inconclusive: 26.9 µM [inhibitor, single point]"}
{"molecule": "Cn1ccsc1=NC(=O)c1ccc(S(=O)(=O)C(F)F)cc1", "Potency": "inconclusive: 10.7 µM [inhibitor, partial curve]"}
{"molecule": "N#Cc1nc(-c2ccc(OCc3ccccc3)cc2)oc1NCCN1CCOCC1", "Potency": "inconclusive: 26.9 µM [inhibitor, partial curve, poor fit]"}
{"molecule": "Cc1nc2sccn2c1-c1csc(NCc2ccccc2)n1", "Potency": "inconclusive: 26.9 µM [inhibitor, partial curve]"}
{"molecule": "C/C(=N\\OCC(=O)N/N=C/c1ccccc1)c1cccs1", "Potency": "inconclusive: 21.3 µM [inhibitor, partial curve, poor fit]"}
{"molecule": "O=C(NCC1CCCO1)c1cc2cc(F)ccc2[nH]1", "note": "(stereo not given)", "Potency": "inconclusive: 21.3 µM [inhibitor, partial curve, poor fit]"}
{"molecule": "CC(C)(C)C1CCc2c(sc(NC(=O)CSc3ncn[nH]3)c2C#N)C1", "note": "(stereo not given)", "Potency": "inconclusive: 23.9 µM [inhibitor, single point]"}
{"molecule": "CCCCCc1ccc(-c2ccc(C(=O)Oc3ccc(C(=O)OC)cc3)cc2)nc1", "Potency": "active: 12 µM"}
{"molecule": "O=C(Cc1cn2ccsc2n1)OCc1ccccc1", "Potency": "inactive"}
{"molecule": "COc1ccc(-c2coc3cc(O)c(OC)cc3c2=O)cc1", "Potency": "inconclusive: 11.2 µM [inhibitor, partial curve, poor fit]"}
{"molecule": "CC(C)=CCc1c(O)c(CC=C(C)C)c2occ(-c3ccc(O)cc3)c(=O)c2c1O", "Potency": "inconclusive: 37.9 µM [inhibitor, partial curve, poor fit]"}
{"molecule": "O=C(Nc1ccc(F)cc1)C1COc2ccccc2O1", "note": "(stereo not given)", "Potency": "inconclusive: 26.9 µM [inhibitor, single point]"}
{"molecule": "COC(=O)c1ccc(NC(=O)c2c(Br)cnn2C)cc1", "Potency": "inconclusive: 23.9 µM [inhibitor, partial curve, poor fit]"}
{"molecule": "Cc1ccc(CN2C(=O)C(=O)c3cc(Br)cc(C)c32)cc1", "Potency": "inconclusive: 26.9 µM [inhibitor, partial curve]"}
{"molecule": "CC(C)C(NC(=O)c1c(F)cccc1F)C(=O)OCN1C(=O)c2ccccc2C1=O", "note": "(stereo not given)", "Potency": "inactive"}
{"molecule": "Cc1cccc(NC(=O)CSc2nnc(CNC(=O)c3ccco3)n2C)c1C", "Potency": "inactive"}
{"molecule": "CCOc1ccc(-n2c(=O)c3c(C)c(C)sc3n(CC(=O)Nc3ccc(CC)cc3)c2=O)cc1", "Potency": "inactive"}
{"molecule": "N#CCCNC(=O)Cn1c(COc2ccc(Cl)cc2)nc2ccccc21", "Potency": "inconclusive: 23.9 µM [inhibitor, partial curve]"}
{"molecule": "O=C(Nc1ccc(Cl)c(Cl)c1)c1ccc(Cn2cc(Cl)cn2)cc1", "Potency": "active: 19 µM"}
{"molecule": "CC(=O)Nc1nonc1-c1nnc(SCC(=O)Nc2cccc(C)c2C)n1-c1ccccc1", "Potency": "inactive"}
{"molecule": "CCOc1cc(/C=N/NC(=O)CSc2nncn2C)ccc1OCc1cccc(C)c1", "Potency": "inconclusive: 26.9 µM [inhibitor, partial curve, poor fit]"}
{"molecule": "COc1cc(C(=O)Nc2cccc(OCc3cc(=O)n4cc(C)sc4n3)c2)cc(OC)c1OC", "Potency": "inconclusive: 3.01 µM [inhibitor, partial curve]"}
{"molecule": "COC(=O)c1c(-c2cc(C)ccc2C)csc1NC(=O)C1CC=CCC1C(=O)O", "note": "(stereo not given)", "Potency": "inconclusive: 37.9 µM [inhibitor, single point]"}
{"molecule": "COc1ccc(-c2nc(CCNC(=O)c3c(F)cccc3Cl)cs2)cc1", "Potency": "inconclusive: 26.9 µM [inhibitor, single point]"}
{"molecule": "COc1ccc(CC(=O)NCc2cn3ccsc3n2)cc1", "Potency": "inconclusive: 6.01 µM [inhibitor, partial curve, poor fit]"}
{"molecule": "CCCCNc1ccc(-c2nc(-c3ccncc3)no2)cc1[N+](=O)[O-]", "Potency": "inconclusive: 3.38 µM [inhibitor, partial curve, poor fit]"}
{"molecule": "CCCCCCCCC(=O)NNC(=O)c1c(O)c2ccccc2n(CCC)c1=O", "Potency": "inconclusive: 7.57 µM [inhibitor, partial curve, poor fit]"}
{"molecule": "COc1ccc(-c2cc(-c3c(O)c(OC)c4occc4c3OC)[nH]n2)cc1OC", "Potency": "active: 16.9 µM"}
{"molecule": "CSCCC(NC(=O)c1ccc(Cl)cc1Cl)C(=O)N(C)Cc1nc2ccccc2c(=O)[nH]1", "note": "(stereo not given)", "Potency": "inconclusive: 21.3 µM [inhibitor, single point]"}
{"molecule": "COc1ccc(-c2nc3ccccc3n2Cc2ccc(C)cc2)cc1", "Potency": "inconclusive: 26.9 µM [inhibitor, partial curve]"}
{"molecule": "C/C(=N\\Nc1nc(C)cc(-c2ccccc2)n1)c1ccccc1", "Potency": "active: 2.69 µM"}
{"molecule": "COc1ccc(-c2nnc(-c3ccc(Br)o3)o2)cc1OC", "Potency": "inconclusive: 21.3 µM [inhibitor, partial curve, poor fit]"}
{"molecule": "Cc1ccc(CNC(=O)CSc2nc(=O)n(Cc3ccco3)c3c2CCC3)cc1", "Potency": "inconclusive: 37.9 µM [inhibitor, partial curve, poor fit]"}
